Test results taken from PubChem BioAssay AID686971 (National Center for Advancing Translational Sciences (NCATS), 2013).
Screen size: about 360,000 compounds; about 7,500 (2.1%) were called active. Inconclusive means that the source gave no clear call. Such entries were picked first, then a sample of the others. Calls follow the shape of the dose curve; as a rule, active = well fitted cell-killing curve with a large enough effect; inconclusive = small, poorly fitted or top-dose-only effect, or effect the other way, or another doubt; inactive = no such curve, though single readings can be large or run the other way. No potency is given beside an inconclusive call; the fits are too rough.
Potency is read from the fitted curve at half-maximal effect; tags tell the direction and shape of the fitted curve.

Experiment: qHTS for induction of synthetic lethality in tumor cells producing 2HG: qHTS for the HT-1080-IDH1KD cell line;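 as to activity, negative = toxicity: 0% = DMSO wells and -100% = cell-free medium wells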
Conditions: HT-1080 IDH1 knockdown viability, ATP luminescence, 48 h; activity, negative = toxicity: at 46.1 µM (top of the series) unless noted
Outline: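 Viability of IDH1-knockdown HT-1080 fibrosarcoma cells was assessed by CellTiter-Glo after 48 h at 37 °C with titrated compound; concentration-effect curves were classified by fit quality and response size.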
With CCC(=O)Nc1nc2ccc3nc(C)sc3c2s1 the “activity, negative = toxicity” value was inactive: 7.36%. For CC(=O)N1CCN(c2cc(N3CCc4ccccc4C3)c(F)cc2[N+](=O)[O-])CC1, the Potency was inconclusive [cytotoxic, single point]. With CN1CCN(S(=O)(=O)c2ccc(NC(=O)Nc3cccc(Cl)c3)cc2)CC1 the Potency was active: 18.4 µM. In the case of O=C(NCc1cccc(Cl)c1)C1Cc2c(-c3ccccc3Oc3ccccc3)ccnc2O1 (configuration not stated), the Potency is reported as inconclusive [cytotoxic, single point]. In the case of Cc1nnc(Sc2cc(NCCO)c([N+](=O)[O-])c3nonc23)s1, the Potency is reported as inconclusive [cytotoxic, single point]. With O=C1c2ccc([N+](=O)[O-])cc2NC(c2ccco2)N1/N=C/c1ccco1 (configuration not stated) the “activity, negative = toxicity” value was inactive: -13%. With CCCCOc1ccc(Cl)cc1CSc1nncn1N the Potency was inconclusive [cytotoxic, single point]. For O=c1cc(C(F)(F)F)[nH]c2ccc(OC(F)(F)F)cc12, the Potency was active: 20.6 µM. With COC(=O)c1cc(C(=O)Nc2ccc(Cl)cn2)cc([N+](=O)[O-])c1 the activity, negative = toxicity was inconclusive: 8.48% [cytotoxic]. With COc1ccc(NC(=O)C2(C)CCN2CCc2ccccc2)cc1OC (configuration not stated) the “activity, negative = toxicity” value was inactive: 15.3%. In the case of CN=C(Nc1ccc(C)c(C)c1)SC1CC(=O)N(c2ccc(OC)cc2)C1=O (configuration not stated), the Potency is reported as inconclusive [cytotoxic, single point]. In the case of N#C/C(=C\c1cccc(Oc2ccccc2)c1)C(=O)N1CCOCC1, the Potency is reported as inconclusive [cytotoxic, single point]. In the case of O=c1c(Sc2ccccc2)c(C(F)(F)F)[nH]n1-c1ccccc1, the Potency is reported as inconclusive [cytotoxic, partial curve]. For CCOc1cc(N2CCOCC2)c(OCC)cc1NS(=O)(=O)c1ccc(Cl)s1, the Potency was active: 4.11 µM. In the case of CC(C)(C)c1ccc(OCc2ccc(C(=O)Nc3cccnc3)o2)cc1, the Potency is reported as inconclusive [cytotoxic, partial curve]. With COc1ccc(C(=O)NCCC2=CCCCC2)cc1OC1CCN(C(C)C)CC1 the “activity, negative = toxicity” value was inactive: -24.3%. With CCc1cc2c(=O)c(-c3nc4ccccc4[nH]3)coc2c(CN2CCCCC2C)c1O (configuration not stated) the Potency was inconclusive [cytotoxic, single point]. In the case of Cc1nc(S(=O)(=O)N(C)c2ccccc2)c(C#N)c(C)c1Cl, the Potency is reported as inconclusive [cytotoxic, single point]. For Cc1ccc(NS(=O)(=O)c2ccc(NC(=O)C3CC3)cc2)cc1C, the Potency was inconclusive [cytotoxic, single point]. With CCOc1ccc(/C=C/C(=O)c2cc(Br)ccc(=O)c2O)cc1 the Potency was active: 23.1 µM. With O=C1OC(C(=O)O)Cc2ccccc21 (configuration not stated) the Potency was inconclusive [rising, full curve]. In the case of OC(CNc1ccnc2cc(Cl)ccc12)CNC1CCCCC1 (configuration not stated), the Potency is reported as active: 20.6 µM. In the case of COc1ccc(C)cc1NS(=O)(=O)c1ccc(-c2cnc(C3CC3)o2)cc1, the Potency is reported as active: 0.0073 µM. For CC(=O)Cn1c(CN2CCN(C(=O)c3ccco3)CC2)nc2c1c(=O)n(C)c(=O)n2C, the “activity, negative = toxicity” value was inactive: -1.4%. With O=S(=O)(Nc1cccc(-c2ccc(N3CCOCC3)nn2)c1)c1cc(Cl)ccc1Cl the “activity, negative = toxicity” value was inactive: -21.3%. For CCc1cc(=O)oc2cc3occ(-c4ccc(OC)c(F)c4)c3cc12, the Potency was active: 5.17 µM. For COc1cc(OC)cc(C(=O)NCC(=O)N2CCN(c3ccc(O)cc3)CC2)c1, the Potency was inconclusive [cytotoxic, partial curve]. For CC(OCC(O)CN(C)Cc1nc2ccccc2c(=O)[nH]1)c1ccc(Cl)cc1 (configuration not stated), the Potency was inconclusive [cytotoxic, partial curve, poor fit]. In the case of COc1ccc(-c2cc(C3CCN(c4ccc(C(C)=O)cc4[N+](=O)[O-])CC3)[nH]n2)cc1, the Potency is reported as inconclusive [cytotoxic, single point]. In the case of CCOc1cc(N2CCOCC2)c(OCC)cc1NC(=O)c1cccc(S(=O)(=O)N2CCOCC2)c1, the activity, negative = toxicity is reported as inconclusive: 21%. With Cc1c(NC(=O)C(C)OC(=O)COc2ccc(C#N)cc2)c(=O)n(-c2ccccc2)n1C (configuration not stated) the “activity, negative = toxicity” value was inactive: -5.92%. In the case of O=C(Cn1nnc(-c2ccccc2)n1)NNC(=O)c1ccc(Br)cc1, the Potency is reported as inconclusive [rising, single point]. In the case of CCCCOc1ccc(C(=O)NO)cc1, the Potency is reported as inconclusive [cytotoxic, partial curve]. In the case of Cc1nc([N+](=O)[O-])c(Sc2nc3ccccc3n2C)n1Cc1ccccc1, the Potency is reported as inconclusive [cytotoxic, single point]. In the case of CN(Cc1cn(Cc2ccc(F)cc2)nn1)C1CN(Cc2cn(Cc3ccc(F)cc3)nn2)S(=O)(=O)C1 (configuration not stated), the “activity, negative = toxicity” value is reported as inactive: -3.52%. With CC(Nc1ccc(Br)cn1)c1cc(Cl)ccc1O (configuration not stated) the Potency was inconclusive [cytotoxic, single point]. With O=C(c1ccccc1)[C@@H]1[C@@H]2C(=O)N(c3ccc(F)cc3)C(=O)[C@@H]2C2CCCN21 (some centres not stated) the Potency was active: 23.1 µM. With CCOCCCNC(=O)CN1C(=O)NC(Cc2c[nH]c3ccccc23)C1=O (configuration not stated) the “activity, negative = toxicity” value was inactive: 5.25%. In the case of COc1ccccc1Cc1c(-c2ccc(OC)c(OC)c2)nc2c(Cl)cc(C(F)(F)F)cn12, the “activity, negative = toxicity” value is reported as inactive: 2.42%. With CCOc1ccc(CN(C)c2nc(-c3cccnc3)nc3ccccc23)cc1OC the Potency was inconclusive [cytotoxic, single point]. In the case of CCN(CC)S(=O)(=O)c1ccc(C(C)NC(=O)Cc2c[nH]c3ccccc23)cc1 (configuration not stated), the “activity, negative = toxicity” value is reported as inactive: -27.9%. In the case of Cc1ccc(Oc2ccc(NC(=O)Cn3ccsc3=N)cc2)cc1, the Potency is reported as inconclusive [cytotoxic, single point]. In the case of O=C(Cn1nnc2ccccc21)Nc1ccccc1[N+](=O)[O-], the activity, negative = toxicity is reported as inconclusive: -32.8% [cytotoxic]. In the case of CC(=O)Nc1ccc(S(=O)(=O)NCCc2csc(C)n2)cc1, the “activity, negative = toxicity” value is reported as inactive: 0%. With CCOC(=O)c1c(NC(=S)Nc2ccccc2)sc(C)c1C the Potency was inconclusive [cytotoxic, single point]. For O=C(c1c(O)c2ccccc2oc1=O)C1CCCCC1, the Potency was inconclusive [cytotoxic, single point]. In the case of O=C1c2ccccc2C(=O)N1CCCCN(C(=O)c1cc2ccccc2oc1=O)c1ccc(Cl)cc1, the “activity, negative = toxicity” value is reported as inactive: -4.66%.
